Results on 146 sequences are retold here after the BET-seq Pho4 binding data (Le et al. 2018).

This is one part of the list. These are noisy estimates, calculated here from bound and input reads.

The target in the assay is T1, Pho4 (S. cerevisiae) (UniProt P07270).
T1 sequence: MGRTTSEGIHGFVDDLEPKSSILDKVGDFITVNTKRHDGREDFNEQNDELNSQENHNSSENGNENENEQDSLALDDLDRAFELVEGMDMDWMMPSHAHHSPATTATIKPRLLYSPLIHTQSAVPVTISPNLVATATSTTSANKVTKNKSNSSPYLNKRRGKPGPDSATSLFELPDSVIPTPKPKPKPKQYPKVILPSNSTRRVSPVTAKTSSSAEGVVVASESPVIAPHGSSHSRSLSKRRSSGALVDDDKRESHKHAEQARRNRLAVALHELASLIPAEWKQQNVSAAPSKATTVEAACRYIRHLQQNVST
The experiment in a line: relative binding free energy (BET-seq); higher = weaker binding. Particulars: reference: library average.
As to AACTGCACGTGTATTT, the “relative binding free energy” value was determined as 0.13 kcal/mol. As for GAAATCACGTGGGGTA, the “relative binding free energy” value stood at 0.08 kcal/mol. Turning to ATAATCACGTGGTTTC, the “relative binding free energy” value turned out to be 0 kcal/mol. With GAGAGCACGTGTCGTT, the “relative binding free energy” value is 0.01 kcal/mol. In the case of ATATTCACGTGGATAT, the “relative binding free energy” value stood at 0.13 kcal/mol. With TAGGACACGTGGTCAT, the “relative binding free energy” value is -0.03 kcal/mol. Then TGGTGCACGTGAGCGA, with 0.15 kcal/mol. As for TTGACCACGTGTAGGT, the “relative binding free energy” value was -0.17 kcal/mol. Regarding TTTTCCACGTGATTGA, the “relative binding free energy” value stood at 0.14 kcal/mol.

Take TGGCTCACGTGCAGTT: the “relative binding free energy” value was 0.06 kcal/mol. Regarding TTGTTCACGTGGTTCG, the “relative binding free energy” value was 0.39 kcal/mol.

For ATGGTCACGTGGGCTC, the “relative binding free energy” value stood at 0.11 kcal/mol.

As for GGAATCACGTGAGGTG, the “relative binding free energy” value worked out at 0.47 kcal/mol. As to AGGTACACGTGGTAGA, the “relative binding free energy” value came to 0.07 kcal/mol. As for TTGATCACGTGCCCGG, the “relative binding free energy” value stood at 0.36 kcal/mol. Then CTTTCCACGTGTGTTG, with -0.08 kcal/mol; and AGTGTCACGTGGGCAA, with -0.07 kcal/mol. For the sequence GCGTTCACGTGAAGTG, the “relative binding free energy” value amounted to 0.34 kcal/mol. TTCTGCACGTGTGTGC: the “relative binding free energy” value is 0.11 kcal/mol. AGTCGCACGTGTGGTC: the “relative binding free energy” value stood at 0.08 kcal/mol. Turning to TTTGGCACGTGTGAGC, the “relative binding free energy” value is -0.12 kcal/mol. In the case of TGGTACACGTGGGCGA, the “relative binding free energy” value was -0.19 kcal/mol. As for TGAGTCACGTGTGGGG, the “relative binding free energy” value was 0.18 kcal/mol. As to TTTAGCACGTGATCTG, the “relative binding free energy” value was 0.09 kcal/mol. Take TGATCCACGTGTGTTG: the “relative binding free energy” value came to 0.04 kcal/mol.

CCGTTCACGTGTGGGA: the “relative binding free energy” value was found to be 0.31 kcal/mol. The same measure for GATGTCACGTGGCCGG: -0.02 kcal/mol; for AGGCACACGTGAGGGT: 0.17 kcal/mol; for GTATTCACGTGTATAG: 0.21 kcal/mol. With TTTGCCACGTGAATGG, the “relative binding free energy” value was 0.08 kcal/mol. As for CGTTACACGTGAATGT, the “relative binding free energy” value is 0.33 kcal/mol. Regarding GTTTACACGTGGCGTT, the “relative binding free energy” value amounted to 0.1 kcal/mol. Turning to AGGCGCACGTGGGCGT, the “relative binding free energy” value was -0.3 kcal/mol. The same measure for GGTGGCACGTGGTATT: -0.06 kcal/mol. Regarding AGCGTCACGTGAGGGG, the “relative binding free energy” value worked out at 0.21 kcal/mol.

Take TGTGGCACGTGTCCGG: the “relative binding free energy” value was -0.26 kcal/mol. The same measure for TTCCGCACGTGGTGTG: -0.09 kcal/mol; for TAGTACACGTGATTTG: 0.22 kcal/mol. Consider TTAAACACGTGGTTTC, for which the “relative binding free energy” value amounted to 0.02 kcal/mol. Consider AACTGCACGTGAGGTT, for which the “relative binding free energy” value was 0.19 kcal/mol. With TGGGACACGTGAGGAG, the “relative binding free energy” value is 0.18 kcal/mol. As to GTCGGCACGTGTAGTA, the “relative binding free energy” value was -0.03 kcal/mol. As for TGTTACACGTGGTAGG, the “relative binding free energy” value was determined as 0.11 kcal/mol. Turning to GGGATCACGTGGCGTG, the “relative binding free energy” value was 0.01 kcal/mol.

Take ATACGCACGTGTGGGT: the “relative binding free energy” value was -0.06 kcal/mol. The same measure for GAGCTCACGTGAGGGA: 0.36 kcal/mol; for AAGTGCACGTGGTGCT: -0.12 kcal/mol; for GTTATCACGTGCGGCA: 0.3 kcal/mol.

Consider TTGGGCACGTGTTCGT, for which the “relative binding free energy” value is -0.05 kcal/mol. On to AGGCGCACGTGGTTAT, for which the “relative binding free energy” value was -0.08 kcal/mol. In the case of TTCGTCACGTGGGTTA, the “relative binding free energy” value turned out to be 0.01 kcal/mol.

Regarding CGGCGCACGTGATTGT, the “relative binding free energy” value stood at 0.1 kcal/mol.

Take GGGGGCACGTGAAGGG: the “relative binding free energy” value was found to be 0.25 kcal/mol. The same measure for CTAGGCACGTGTAAGA: 0.12 kcal/mol; for GAGTGCACGTGAATTT: 0.38 kcal/mol. With TGCGGCACGTGACGTG, the “relative binding free energy” value was -0.12 kcal/mol. Consider TGAACCACGTGTGGGG, for which the “relative binding free energy” value worked out at 0.06 kcal/mol. As for GTTATCACGTGGGCAT, the “relative binding free energy” value came to 0.08 kcal/mol. Regarding TTCAGCACGTGGTGAC, the “relative binding free energy” value was -0.01 kcal/mol.

In the case of AGATTCACGTGGCGCG, the “relative binding free energy” value amounted to 0.27 kcal/mol. Turning to GGGGACACGTGGAAGA, the “relative binding free energy” value stood at 0.08 kcal/mol. As for TGTGGCACGTGGAACT, the “relative binding free energy” value was -0.02 kcal/mol.

Take CGCGTCACGTGTCGGT: the “relative binding free energy” value came out at 0.13 kcal/mol. The same measure for TAGCACACGTGTTGTG: -0.12 kcal/mol. As to TGGGTCACGTGGCATA, the “relative binding free energy” value was -0.09 kcal/mol. With TTTTGCACGTGGATTC, the “relative binding free energy” value was -0.15 kcal/mol. With TTATTCACGTGGATTC, the “relative binding free energy” value is 0.28 kcal/mol. Turning to TTTGTCACGTGGTCTG, the “relative binding free energy” value is -0.04 kcal/mol. Take CGTGTCACGTGTCGTA: the “relative binding free energy” value turned out to be 0.15 kcal/mol. Turning to AAGGGCACGTGATGGT, the “relative binding free energy” value is -0.04 kcal/mol.

On to AGCTGCACGTGAGGTT, for which the “relative binding free energy” value was 0.27 kcal/mol.

In the case of CTGGGCACGTGCTCGT, the “relative binding free energy” value is -0.15 kcal/mol. In the case of GCTAACACGTGGGTTT, the “relative binding free energy” value was -0.11 kcal/mol. For the sequence TTACACACGTGGAGTT, the “relative binding free energy” value was 0.02 kcal/mol. Then GGCGGCACGTGCTGTA, with -0.13 kcal/mol. As for ACCGTCACGTGAGGGT, the “relative binding free energy” value was found to be 0.25 kcal/mol.

As to AGTTACACGTGGATAG, the “relative binding free energy” value was determined as 0.17 kcal/mol.

For GATAGCACGTGTTTAA, the “relative binding free energy” value is 0.27 kcal/mol.

As to TAGCACACGTGTGTTG, the “relative binding free energy” value is 0.05 kcal/mol. The same measure for TTGGACACGTGTGCCT: 0.05 kcal/mol; for ATGGGCACGTGGGTTC: -0.25 kcal/mol. For AATGTCACGTGGGCGC, the “relative binding free energy” value was -0.05 kcal/mol. For TTGGTCACGTGTGGGT, the “relative binding free energy” value came to 0.17 kcal/mol.

Regarding CAGGGCACGTGTGTGC, the “relative binding free energy” value is -0.21 kcal/mol. The same measure for TTGCGCACGTGAGGTG: 0.16 kcal/mol. As for AAATACACGTGTGTTT, the “relative binding free energy” value came to 0.13 kcal/mol. Take AAGCGCACGTGTGGAG: the “relative binding free energy” value is -0.05 kcal/mol. TAGAGCACGTGCGGGC: the “relative binding free energy” value worked out at 0.04 kcal/mol. With AGTTGCACGTGTATTT, the “relative binding free energy” value amounted to 0.09 kcal/mol. As to AGTCGCACGTGTGCTG, the “relative binding free energy” value is -0.01 kcal/mol. TTGGGCACGTGAGATA: the “relative binding free energy” value was determined as 0.21 kcal/mol. Then GATGACACGTGGGGCA, with -0.11 kcal/mol. Regarding GGTCGCACGTGTGTCT, the “relative binding free energy” value stood at 0.05 kcal/mol. For TAGCTCACGTGATTTG, the “relative binding free energy” value amounted to 0.37 kcal/mol. AAAAGCACGTGTCGGG: the “relative binding free energy” value amounted to 0 kcal/mol. For the sequence TAGCGCACGTGGTAGA, the “relative binding free energy” value was -0.14 kcal/mol. Then GTCTGCACGTGTTCGT, with 0.03 kcal/mol; and GTTGCCACGTGAAAGT, with 0.27 kcal/mol.

As to TATGTCACGTGTTACG, the “relative binding free energy” value was determined as 0.09 kcal/mol. AGGTTCACGTGTTCAT: the “relative binding free energy” value was found to be 0.23 kcal/mol. Then AATAGCACGTGAAATG, with 0.32 kcal/mol; and GGCGGCACGTGAGCTG, with 0.12 kcal/mol; and GGTTTCACGTGGTTAC, with 0.37 kcal/mol. Turning to CTTGTCACGTGCTCGT, the “relative binding free energy” value came to 0.22 kcal/mol. As to TTAATCACGTGCTTTT, the “relative binding free energy” value turned out to be 0.09 kcal/mol. For AGTGGCACGTGCGGCA, the “relative binding free energy” value is -0.14 kcal/mol.

TTGGACACGTGCTATG: the “relative binding free energy” value was 0 kcal/mol.

For the sequence ATTGGCACGTGGTCGA, the “relative binding free energy” value was -0.29 kcal/mol. On to ATTAGCACGTGGGGCG, for which the “relative binding free energy” value is -0.19 kcal/mol. For the sequence GATTACACGTGAATGT, the “relative binding free energy” value came to 0.31 kcal/mol.

Regarding CAGGGCACGTGTGCTT, the “relative binding free energy” value stood at 0 kcal/mol. With TGGAACACGTGTCAGT, the “relative binding free energy” value was 0.14 kcal/mol. Take TGGCTCACGTGTAGCG: the “relative binding free energy” value came out at 0.23 kcal/mol. On to CGGAACACGTGGTGTT, for which the “relative binding free energy” value is -0.15 kcal/mol. The same measure for GGGGGCACGTGTCGGG: -0.02 kcal/mol. Then ATTGTCACGTGTGGAC, with 0.07 kcal/mol. Take GGTATCACGTGAGGTG: the “relative binding free energy” value was determined as 0.25 kcal/mol. Turning to TATGACACGTGGTAGA, the “relative binding free energy” value was -0.01 kcal/mol. With GTTTGCACGTGCTGAA, the “relative binding free energy” value was 0.1 kcal/mol. Then CAGTGCACGTGTTGTT, with -0.03 kcal/mol; and GAGCTCACGTGGCGGT, with 0.29 kcal/mol; and TGGGGCACGTGCGCTT, with -0.29 kcal/mol. CTGGTCACGTGGTCAG: the “relative binding free energy” value was -0.09 kcal/mol.

TCGTACACGTGCGTGG: the “relative binding free energy” value was -0.02 kcal/mol. On to AGAGTCACGTGGGTCG, for which the “relative binding free energy” value was 0.06 kcal/mol. With TTATACACGTGACGGG, the “relative binding free energy” value is 0.16 kcal/mol. With TATTGCACGTGTTTAT, the “relative binding free energy” value is -0.14 kcal/mol. Turning to GTGGACACGTGGTGCA, the “relative binding free energy” value was -0.09 kcal/mol. Then TTATCCACGTGGTGAG, with 0.01 kcal/mol; and ATAGGCACGTGGTTAT, with -0.11 kcal/mol; and TATTACACGTGGATTA, with -0.02 kcal/mol. Consider ATAGGCACGTGGATGC, for which the “relative binding free energy” value was -0.1 kcal/mol. For TCATTCACGTGGTTGA, the “relative binding free energy” value is 0.16 kcal/mol. The same measure for TGGGGCACGTGCTGTC: -0.12 kcal/mol; for TAGGTCACGTGAGCGT: 0.24 kcal/mol. The same measure for CGGTACACGTGGGTAT: -0.17 kcal/mol; for TGCATCACGTGGGTTT: -0.04 kcal/mol; for GGTGTCACGTGATGCA: 0.07 kcal/mol. Then ATCGGCACGTGATGCG, with 0.06 kcal/mol; and TCCGTCACGTGGCGTG, with 0.05 kcal/mol. In the case of CTTGGCACGTGGTGTA, the “relative binding free energy” value is -0.18 kcal/mol.

CGTTACACGTGGGGCT: the “relative binding free energy” value worked out at 0.12 kcal/mol. Take GAGTGCACGTGGCAGT: the “relative binding free energy” value was 0.01 kcal/mol. For GATAGCACGTGTGTAG, the “relative binding free energy” value was 0.05 kcal/mol. Regarding TGTTTCACGTGGACAA, the “relative binding free energy” value is 0.28 kcal/mol. Turning to ATTTACACGTGTAGTC, the “relative binding free energy” value turned out to be 0.19 kcal/mol.
